Counter-ions that a name gives are not always drawn. Synthetic gut communities (20 or 21 species) grown anaerobically with drug for 24 h at the dose given, then challenged with the named pathogen. Pathogen growth (luminescence, or colony counts for V. cholerae) or community OD578 as fold of untreated communities, mean of three; above 1 = more growth. No active / inactive call.
Key:
[1] = system: Yersinia enterocolitica WA-314 (community: Com20); test: pathogen growth (luminescence or CFU) in drug-pretreated community relative to untreated community (fold of untreated control); higher = more pathogen expansion
[2] = system: Yersinia pseudotuberculosis YPIII (community: Com20); test: as above
[3] = system: Vibrio cholerae A1552 (community: Com20); test: as above
[4] = system: Escherichia coli CFT073 (community: Com20); test: as above
[5] = system: Shigella flexneri 24570 (community: Com20); test: as above
[6] = system: Klebsiella pneumoniae MKP103 (community: Com20); test: as above
[7] = system: Salmonella enterica Typhimurium (community: Com21 (Com20 + E. coli ED1a)); test: as above
[8] = system: Salmonella enterica Typhimurium in Com20; test: S. Typhimurium luminescence in drug-pretreated Com20 relative to untreated Com20 (fold of untreated control); higher = more pathogen expansion
[9] = system: Com20 synthetic gut community; test: Com20 community biomass OD578 after 24 h drug treatment relative to untreated (fraction of untreated control); higher = more community growth
[10] = drug pretreatment concentration 10 µM
[11] = drug pretreatment concentration 20 µM
[12] = drug pretreatment concentration 40 µM
[13] = drug pretreatment concentration 80 µM
[14] = drug pretreatment concentration 100 µM
[15] = drug pretreatment concentration 2.5 µM
[16] = drug pretreatment concentration 5 µM

CN(C)CCCN1c2ccccc2Sc2ccc(Cl)cc21 [Chlorpromazine hydrochloride]
pathogen growth [1, 10]: 1.3 | pathogen growth [1, 11]: 1.21 | pathogen growth [1, 12]: 0.959 | pathogen growth [1, 13]: 0.831 | pathogen growth [1, 14]: 0.953 | pathogen growth [2, 10]: 2.19 | pathogen growth [2, 11]: 2.61 | pathogen growth [2, 12]: 1.58 | pathogen growth [2, 13]: 0.902 | pathogen growth [2, 14]: 0.753 | pathogen growth [3, 10]: 0.991 | pathogen growth [3, 11]: 1.24 | pathogen growth [3, 12]: 0.714 | pathogen growth [3, 13]: 1.45 | pathogen growth [3, 14]: 1.56 | pathogen growth [4, 10]: 1.37 | pathogen growth [4, 11]: 1.51 | pathogen growth [4, 12]: 2.07 | pathogen growth [4, 13]: 4.05 | pathogen growth [4, 14]: 5.6 | pathogen growth [5, 10]: 1.71 | pathogen growth [5, 11]: 1.44 | pathogen growth [5, 12]: 1.55 | pathogen growth [5, 13]: 2.48 | pathogen growth [5, 14]: 3.25 | pathogen growth [6, 10]: 0.966 | pathogen growth [6, 11]: 1.36 | pathogen growth [6, 12]: 1.79 | pathogen growth [6, 13]: 2.9 | pathogen growth [6, 14]: 3.43

CCN(CC)CCOc1ccc(C(=C(Cl)c2ccccc2)c2ccccc2)cc1 [Clomiphene]
pathogen growth [1, 10]: 1.42 | pathogen growth [1, 11]: 1.59 | pathogen growth [1, 12]: 2.38 | pathogen growth [1, 13]: 4.29 | pathogen growth [2, 10]: 3.25 | pathogen growth [2, 11]: 2.76 | pathogen growth [2, 12]: 3.45 | pathogen growth [2, 13]: 5.91 | pathogen growth [3, 10]: 0.835 | pathogen growth [3, 11]: 1.13 | pathogen growth [3, 12]: 1.17 | pathogen growth [3, 13]: 2.18 | pathogen growth [7, 10]: 1.08 | pathogen growth [7, 11]: 1.17 | pathogen growth [7, 12]: 0.981 | pathogen growth [7, 13]: 4.31 | pathogen growth ([7]; drug pretreatment concentration 160 µM): 5.48 | pathogen growth [4, 10]: 1.28 | pathogen growth [4, 11]: 1.5 | pathogen growth [4, 12]: 1.88 | pathogen growth [4, 13]: 1.89 | pathogen growth [5, 10]: 1.41 | pathogen growth [5, 11]: 1.97 | pathogen growth [5, 12]: 3.27 | pathogen growth [5, 13]: 4.6 | pathogen growth [6, 10]: 1.36 | pathogen growth [6, 11]: 1.7 | pathogen growth [6, 12]: 2.3 | pathogen growth [6, 13]: 3.33 | S. Typhimurium luminescence [8, 10]: 1.53 | S. Typhimurium luminescence [8, 11]: 1.18 | S. Typhimurium luminescence [8, 12]: 1.1 | S. Typhimurium luminescence [8, 13]: 3.06

Clc1ccccc1C(c1ccccc1)(c1ccccc1)n1ccnc1 [Clotrimazole]
pathogen growth [1, 10]: 1.31 | pathogen growth [1, 11]: 1.02 | pathogen growth [1, 12]: 0.709 | pathogen growth [1, 13]: 4.39 | pathogen growth [1, 14]: 25.1 | pathogen growth [2, 10]: 1.46 | pathogen growth [2, 11]: 1.13 | pathogen growth [2, 12]: 0.842 | pathogen growth [2, 13]: 4.86 | pathogen growth [2, 14]: 26.6 | pathogen growth [3, 10]: 0.548 | pathogen growth [3, 11]: 0.829 | pathogen growth [3, 12]: 0.851 | pathogen growth [3, 13]: 2.55 | pathogen growth [3, 14]: 7.85 | pathogen growth [7, 15]: 1.12 | pathogen growth [7, 16]: 1.38 | pathogen growth [7, 10]: 1.2 | pathogen growth [7, 11]: 1.01 | pathogen growth [7, 12]: 1.58 | pathogen growth [4, 10]: 1.11 | pathogen growth [4, 11]: 1.69 | pathogen growth [4, 12]: 1.93 | pathogen growth [4, 13]: 7.3 | pathogen growth [4, 14]: 19.7 | pathogen growth [5, 10]: 1.15 | pathogen growth [5, 11]: 1.32 | pathogen growth [5, 12]: 1.97 | pathogen growth [5, 13]: 13.3 | pathogen growth [5, 14]: 41.5 | pathogen growth [6, 10]: 1.2 | pathogen growth [6, 11]: 1.54 | pathogen growth [6, 12]: 1.76 | pathogen growth [6, 13]: 5.24 | pathogen growth [6, 14]: 14.8 | S. Typhimurium luminescence [8, 15]: 1.1 | S. Typhimurium luminescence [8, 16]: 0.896 | S. Typhimurium luminescence [8, 10]: 0.654 | S. Typhimurium luminescence [8, 11]: 0.882 | S. Typhimurium luminescence [8, 12]: 1.14 | Com20 community biomass OD578 [9, 15]: 1.02 | Com20 community biomass OD578 [9, 16]: 1.02 | Com20 community biomass OD578 [9, 10]: 1.01 | Com20 community biomass OD578 [9, 11]: 0.983 | Com20 community biomass OD578 [9, 12]: 0.966

Reference: the supplement of paper PMC12350171
